From the supplement of paper PMC6531468
The other results are listed elsewhere or left out. Read counts after selection give these values, which scatter widely. Each score is taken over the longer molecules that contain the sequence shown.

How the values were obtained:
Assay in all cases: 6-mer SELEX enrichment z-score vs GST control; IMP3 is the RNA-binding protein IGF2BP3; higher = more enriched by binding
IMP3 KH1-4 = settings: construct: KH1-4 (164-579); SELEX round: R4
Description: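 SELEX-seq with GST-tagged IMP3 KH1-4 (Pro164-Lys579) and an N40 RNA pool, round 4. 6-mer z-score of sequence-tag enrichment normalised to the corresponding GST SELEX round; RNA k-mers written as DNA (T for U).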

IMP3 RRM1-2 = settings: construct: RRM1-2 (1-163); SELEX round: R2
Description: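 SELEX-seq with GST-tagged IMP3 RRM1-2 (Met1-Asn163) and an N40 RNA pool, round 2. 6-mer enrichment z-score normalised to GST SELEX. RNA written as DNA (T = U).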

IMP3 full-length = IMP3 full-length (UniProt O00425); settings: construct: FL IMP3 (1-579); SELEX round: R4
Description: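 SELEX-seq with GST-tagged full-length IMP3 and an N40 RNA pool, round 4. Each 6-mer is scored as an enrichment z-score of sequence tags containing it, normalised to the matching GST SELEX round. RNA written as DNA (T = U).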

IMP3 KH1-2 = settings: construct: KH1-2 (164-376); SELEX round: R4
Description: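 SELEX-seq with GST-tagged IMP3 KH1-2 (Pro164-Phe376) and an N40 RNA pool, round 4 (stringent 300/600 mM KCl washes). 6-mer z-score of sequence-tag enrichment normalised to the corresponding GST SELEX round; RNA k-mers written as DNA (T for U).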

IMP3 KH3-4 = settings: construct: KH3-4 (377-579); SELEX round: R4
Description: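 SELEX-seq with GST-tagged IMP3 KH3-4 (Pro377-Lys579) and an N40 RNA pool, round 4. 6-mer z-score of sequence-tag enrichment normalised to the corresponding GST SELEX round; RNA k-mers written as DNA (T for U).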

UniProt O00425, sequence (O00425 whole entry): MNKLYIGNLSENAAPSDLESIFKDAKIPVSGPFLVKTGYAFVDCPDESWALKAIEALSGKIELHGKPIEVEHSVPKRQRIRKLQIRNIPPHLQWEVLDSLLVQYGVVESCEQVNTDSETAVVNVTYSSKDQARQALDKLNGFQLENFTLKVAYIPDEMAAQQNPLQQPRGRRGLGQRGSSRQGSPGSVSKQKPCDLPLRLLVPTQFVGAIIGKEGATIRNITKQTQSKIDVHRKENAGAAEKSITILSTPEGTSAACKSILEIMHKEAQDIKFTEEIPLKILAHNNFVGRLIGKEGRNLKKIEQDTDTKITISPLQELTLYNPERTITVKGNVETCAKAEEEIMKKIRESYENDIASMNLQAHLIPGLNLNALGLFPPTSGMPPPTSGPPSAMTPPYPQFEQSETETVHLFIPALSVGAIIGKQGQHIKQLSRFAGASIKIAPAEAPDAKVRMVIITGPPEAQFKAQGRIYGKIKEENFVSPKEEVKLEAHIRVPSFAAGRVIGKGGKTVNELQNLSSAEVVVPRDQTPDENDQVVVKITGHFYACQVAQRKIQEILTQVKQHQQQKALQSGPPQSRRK
IMP3 KH1-2, sequence (chain, as listed by the source): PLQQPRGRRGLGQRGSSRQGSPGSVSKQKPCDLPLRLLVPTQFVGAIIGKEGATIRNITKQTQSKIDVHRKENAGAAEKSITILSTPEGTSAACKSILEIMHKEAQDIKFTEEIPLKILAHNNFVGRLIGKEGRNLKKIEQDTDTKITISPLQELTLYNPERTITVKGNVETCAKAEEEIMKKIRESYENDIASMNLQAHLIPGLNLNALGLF
IMP3 RRM1-2, sequence (chain, as listed by the source): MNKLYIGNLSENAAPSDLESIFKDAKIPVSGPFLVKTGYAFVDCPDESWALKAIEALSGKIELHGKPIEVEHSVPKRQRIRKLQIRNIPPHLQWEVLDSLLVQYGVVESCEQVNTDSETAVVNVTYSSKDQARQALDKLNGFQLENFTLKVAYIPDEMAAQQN
IMP3 KH1-4, sequence (chain, as listed by the source): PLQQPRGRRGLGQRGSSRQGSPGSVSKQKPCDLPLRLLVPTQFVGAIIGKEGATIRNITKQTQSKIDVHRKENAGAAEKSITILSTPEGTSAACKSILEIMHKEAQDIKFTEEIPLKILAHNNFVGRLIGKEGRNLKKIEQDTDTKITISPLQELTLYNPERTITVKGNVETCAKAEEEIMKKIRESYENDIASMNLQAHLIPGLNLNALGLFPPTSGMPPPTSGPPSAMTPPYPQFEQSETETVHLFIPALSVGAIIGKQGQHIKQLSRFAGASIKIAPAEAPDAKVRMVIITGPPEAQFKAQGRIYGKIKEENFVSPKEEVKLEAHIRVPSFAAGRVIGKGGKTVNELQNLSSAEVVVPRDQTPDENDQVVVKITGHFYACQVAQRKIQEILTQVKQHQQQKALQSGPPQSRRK
IMP3 KH3-4, sequence (chain, as listed by the source): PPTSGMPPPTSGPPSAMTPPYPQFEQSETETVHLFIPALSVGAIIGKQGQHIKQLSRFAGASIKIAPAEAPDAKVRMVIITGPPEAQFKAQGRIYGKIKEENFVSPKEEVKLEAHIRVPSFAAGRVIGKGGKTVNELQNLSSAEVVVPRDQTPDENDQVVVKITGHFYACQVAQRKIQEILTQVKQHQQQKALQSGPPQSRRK

Sequence: GACGAT
- 6-mer SELEX enrichment z-score (IMP3 KH1-4): -0.187
- 6-mer SELEX enrichment z-score (IMP3 RRM1-2): -0.898
- 6-mer SELEX enrichment z-score (IMP3 full-length): -0.475
- 6-mer SELEX enrichment z-score (IMP3 KH1-2): -0.346
- 6-mer SELEX enrichment z-score (IMP3 KH3-4): -0.132

Sequence: AGCCGT
- 6-mer SELEX enrichment z-score (IMP3 KH1-4): -0.912
- 6-mer SELEX enrichment z-score (IMP3 RRM1-2): -0.312
- 6-mer SELEX enrichment z-score (IMP3 full-length): -0.236
- 6-mer SELEX enrichment z-score (IMP3 KH1-2): -0.846
- 6-mer SELEX enrichment z-score (IMP3 KH3-4): -0.914

Sequence: ATGAGA
- 6-mer SELEX enrichment z-score (IMP3 KH1-4): 0.9
- 6-mer SELEX enrichment z-score (IMP3 RRM1-2): -0.8
- 6-mer SELEX enrichment z-score (IMP3 full-length): -0.343
- 6-mer SELEX enrichment z-score (IMP3 KH1-2): 0.524
- 6-mer SELEX enrichment z-score (IMP3 KH3-4): 1.4

Sequence: GTGCTG
- 6-mer SELEX enrichment z-score (IMP3 KH1-4): 0.194
- 6-mer SELEX enrichment z-score (IMP3 RRM1-2): 0.115
- 6-mer SELEX enrichment z-score (IMP3 full-length): 0.071
- 6-mer SELEX enrichment z-score (IMP3 KH1-2): 0.14
- 6-mer SELEX enrichment z-score (IMP3 KH3-4): 0.109

Sequence: CCACAC
- 6-mer SELEX enrichment z-score (IMP3 KH1-4): 0.343
- 6-mer SELEX enrichment z-score (IMP3 RRM1-2): 1.93
- 6-mer SELEX enrichment z-score (IMP3 full-length): 0.742
- 6-mer SELEX enrichment z-score (IMP3 KH1-2): 0.48
- 6-mer SELEX enrichment z-score (IMP3 KH3-4): -0.983

Sequence: AAGTAG
- 6-mer SELEX enrichment z-score (IMP3 KH1-4): -0.131
- 6-mer SELEX enrichment z-score (IMP3 RRM1-2): -0.204
- 6-mer SELEX enrichment z-score (IMP3 full-length): -0.462
- 6-mer SELEX enrichment z-score (IMP3 KH1-2): -0.342
- 6-mer SELEX enrichment z-score (IMP3 KH3-4): 0.09

Sequence: GCAGTG
- 6-mer SELEX enrichment z-score (IMP3 KH1-4): 0.287
- 6-mer SELEX enrichment z-score (IMP3 RRM1-2): 0.168
- 6-mer SELEX enrichment z-score (IMP3 full-length): 0.378
- 6-mer SELEX enrichment z-score (IMP3 KH1-2): 0.218
- 6-mer SELEX enrichment z-score (IMP3 KH3-4): 0.164

Sequence: CCATCC
- 6-mer SELEX enrichment z-score (IMP3 KH1-4): -0.017
- 6-mer SELEX enrichment z-score (IMP3 RRM1-2): 0.042
- 6-mer SELEX enrichment z-score (IMP3 full-length): -0.048
- 6-mer SELEX enrichment z-score (IMP3 KH1-2): 0.011
- 6-mer SELEX enrichment z-score (IMP3 KH3-4): -0.956

Sequence: GGACGA
- 6-mer SELEX enrichment z-score (IMP3 KH1-4): -0.38
- 6-mer SELEX enrichment z-score (IMP3 RRM1-2): -1.13
- 6-mer SELEX enrichment z-score (IMP3 full-length): -0.34
- 6-mer SELEX enrichment z-score (IMP3 KH1-2): -0.419
- 6-mer SELEX enrichment z-score (IMP3 KH3-4): -0.393

Sequence: AAAAGA
- 6-mer SELEX enrichment z-score (IMP3 KH1-4): -0.498
- 6-mer SELEX enrichment z-score (IMP3 RRM1-2): -3.12
- 6-mer SELEX enrichment z-score (IMP3 full-length): -2.42
- 6-mer SELEX enrichment z-score (IMP3 KH1-2): -0.666
- 6-mer SELEX enrichment z-score (IMP3 KH3-4): 0.963

Sequence: TGATGA
- 6-mer SELEX enrichment z-score (IMP3 KH1-4): 1.24
- 6-mer SELEX enrichment z-score (IMP3 RRM1-2): -0.665
- 6-mer SELEX enrichment z-score (IMP3 full-length): -0.389
- 6-mer SELEX enrichment z-score (IMP3 KH1-2): 0.754
- 6-mer SELEX enrichment z-score (IMP3 KH3-4): 1.44

Sequence: CGGCTA
- 6-mer SELEX enrichment z-score (IMP3 KH1-4): 0.54
- 6-mer SELEX enrichment z-score (IMP3 RRM1-2): 0.407
- 6-mer SELEX enrichment z-score (IMP3 full-length): 0.888
- 6-mer SELEX enrichment z-score (IMP3 KH1-2): 0.316
- 6-mer SELEX enrichment z-score (IMP3 KH3-4): 0.806

Sequence: CACAGT
- 6-mer SELEX enrichment z-score (IMP3 KH1-4): 0.861
- 6-mer SELEX enrichment z-score (IMP3 RRM1-2): 1.22
- 6-mer SELEX enrichment z-score (IMP3 full-length): 1.77
- 6-mer SELEX enrichment z-score (IMP3 KH1-2): 0.748
- 6-mer SELEX enrichment z-score (IMP3 KH3-4): 0.263

Sequence: TCTTAG
- 6-mer SELEX enrichment z-score (IMP3 KH1-4): -0.105
- 6-mer SELEX enrichment z-score (IMP3 RRM1-2): 0.403
- 6-mer SELEX enrichment z-score (IMP3 full-length): 0.002
- 6-mer SELEX enrichment z-score (IMP3 KH1-2): -0.077
- 6-mer SELEX enrichment z-score (IMP3 KH3-4): 0.067

Sequence: ATATGA
- 6-mer SELEX enrichment z-score (IMP3 KH1-4): 2.09
- 6-mer SELEX enrichment z-score (IMP3 RRM1-2): -0.586
- 6-mer SELEX enrichment z-score (IMP3 full-length): 0.099
- 6-mer SELEX enrichment z-score (IMP3 KH1-2): 1.6
- 6-mer SELEX enrichment z-score (IMP3 KH3-4): 2.86

Sequence: GTGCAA
- 6-mer SELEX enrichment z-score (IMP3 KH1-4): 0.176
- 6-mer SELEX enrichment z-score (IMP3 RRM1-2): -0.041
- 6-mer SELEX enrichment z-score (IMP3 full-length): 0.102
- 6-mer SELEX enrichment z-score (IMP3 KH1-2): -0.041
- 6-mer SELEX enrichment z-score (IMP3 KH3-4): 0.13

Sequence: TACACG
- 6-mer SELEX enrichment z-score (IMP3 KH1-4): 0.565
- 6-mer SELEX enrichment z-score (IMP3 RRM1-2): 0.178
- 6-mer SELEX enrichment z-score (IMP3 full-length): 0.56
- 6-mer SELEX enrichment z-score (IMP3 KH1-2): 0.472
- 6-mer SELEX enrichment z-score (IMP3 KH3-4): 0.363

Sequence: GCGCGA
- 6-mer SELEX enrichment z-score (IMP3 KH1-4): -0.507
- 6-mer SELEX enrichment z-score (IMP3 RRM1-2): -0.112
- 6-mer SELEX enrichment z-score (IMP3 full-length): 0.185
- 6-mer SELEX enrichment z-score (IMP3 KH1-2): -0.444
- 6-mer SELEX enrichment z-score (IMP3 KH3-4): -0.409

Sequence: CGATAC
- 6-mer SELEX enrichment z-score (IMP3 KH1-4): -0.254
- 6-mer SELEX enrichment z-score (IMP3 RRM1-2): -0.49
- 6-mer SELEX enrichment z-score (IMP3 full-length): -0.086
- 6-mer SELEX enrichment z-score (IMP3 KH1-2): -0.204
- 6-mer SELEX enrichment z-score (IMP3 KH3-4): -0.3

Sequence: CGATGT
- 6-mer SELEX enrichment z-score (IMP3 KH1-4): -0.463
- 6-mer SELEX enrichment z-score (IMP3 RRM1-2): -0.386
- 6-mer SELEX enrichment z-score (IMP3 full-length): -0.467
- 6-mer SELEX enrichment z-score (IMP3 KH1-2): -0.477
- 6-mer SELEX enrichment z-score (IMP3 KH3-4): -0.35

Sequence: TCGCAC
- 6-mer SELEX enrichment z-score (IMP3 KH1-4): 0.85
- 6-mer SELEX enrichment z-score (IMP3 RRM1-2): 0.397
- 6-mer SELEX enrichment z-score (IMP3 full-length): 0.881
- 6-mer SELEX enrichment z-score (IMP3 KH1-2): 0.654
- 6-mer SELEX enrichment z-score (IMP3 KH3-4): 0.15

Sequence: GAGTAA
- 6-mer SELEX enrichment z-score (IMP3 KH1-4): -0.361
- 6-mer SELEX enrichment z-score (IMP3 RRM1-2): -0.57
- 6-mer SELEX enrichment z-score (IMP3 full-length): -0.465
- 6-mer SELEX enrichment z-score (IMP3 KH1-2): -0.349
- 6-mer SELEX enrichment z-score (IMP3 KH3-4): 0.002

Sequence: TAGTTA
- 6-mer SELEX enrichment z-score (IMP3 KH1-4): 0.038
- 6-mer SELEX enrichment z-score (IMP3 RRM1-2): 0.259
- 6-mer SELEX enrichment z-score (IMP3 full-length): -0.174
- 6-mer SELEX enrichment z-score (IMP3 KH1-2): -0.116
- 6-mer SELEX enrichment z-score (IMP3 KH3-4): 0.047

Sequence: TGGCTT
- 6-mer SELEX enrichment z-score (IMP3 KH1-4): 0.189
- 6-mer SELEX enrichment z-score (IMP3 RRM1-2): 0.518
- 6-mer SELEX enrichment z-score (IMP3 full-length): 0.251
- 6-mer SELEX enrichment z-score (IMP3 KH1-2): 0.213
- 6-mer SELEX enrichment z-score (IMP3 KH3-4): 0.437

Sequence: AGTGCA
- 6-mer SELEX enrichment z-score (IMP3 KH1-4): 0.449
- 6-mer SELEX enrichment z-score (IMP3 RRM1-2): 0.236
- 6-mer SELEX enrichment z-score (IMP3 full-length): 0.641
- 6-mer SELEX enrichment z-score (IMP3 KH1-2): 0.198
- 6-mer SELEX enrichment z-score (IMP3 KH3-4): 0.253

Sequence: GTTTTG
- 6-mer SELEX enrichment z-score (IMP3 KH1-4): -0.322
- 6-mer SELEX enrichment z-score (IMP3 RRM1-2): 0.32
- 6-mer SELEX enrichment z-score (IMP3 full-length): -0.242
- 6-mer SELEX enrichment z-score (IMP3 KH1-2): -0.286
- 6-mer SELEX enrichment z-score (IMP3 KH3-4): -0.075

Sequence: AGGCGT
- 6-mer SELEX enrichment z-score (IMP3 KH1-4): -0.984
- 6-mer SELEX enrichment z-score (IMP3 RRM1-2): 0.28
- 6-mer SELEX enrichment z-score (IMP3 full-length): 0.041
- 6-mer SELEX enrichment z-score (IMP3 KH1-2): -0.802
- 6-mer SELEX enrichment z-score (IMP3 KH3-4): -0.635
